Assay results taken from PubChem BioAssay AID1347073 (National Center for Advancing Translational Sciences (NCATS), 2019).
Hit rate of the full screen: of about 45,000 compounds, about 200 (0.44%) were called active. Inconclusive results (about 7%) are left out. The call rests on the fitted dose curve; in most records, active means well fitted activation curve with a large enough effect; inconclusive means small, poorly fitted or top-dose-only effect; inactive means no such curve, though single readings can be large or run the other way. This is one part of the list.

Test: qHTS of TDP-43 Inhibitors: NCGC Sytravon Library Screen; further: 0% is about no effect; nearly all actives have a fitted effect of over 55% in size
Details: yeast TDP-43 toxicity rescue, BacTiter-Glo growth, 24 h; series mostly up to 46.1 µM; growth rescue (activation): at the top concentration
Procedure, shortened: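 TDP-43-expressing yeast, pregrown in raffinose, seeded at OD600 0.02 in galactose medium with compound for 24 hr at 30 deg C. Growth read by BacTiter-Glo luminescence, so rescue of toxicity appears as activation.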

SMILES | growth rescue (activation)
O=[N+]([O-])c1cccc(-c2n[nH]c(=S)n2-c2ccc(Br)cc2)c1 | inactive: 2.94%
C/C(=N/OC(=O)c1c(-c2ccccc2Cl)noc1C)c1cnccn1 | inactive: 26.2%
COc1ccc(CSCC(=O)N/N=C/c2ccccc2O)cc1 | inactive: -2.2%
CN1C(=O)N(C)C(c2ccccc2Cl)C2=C1CC(C)(C)CC2=O (configuration not stated) | inactive: 22.1%
CN(C)S(=O)(=O)c1cccc(COC(=O)CN2CCCCCC2=O)c1 | inactive: 8.83%
Cc1ccc(S(=O)(=O)N2CCC(C(=O)OCc3ccc([N+](=O)[O-])cc3)CC2)cc1 | inactive: 28.8%
Nc1cc(=O)[nH]c(SCC(=O)Nc2cc(S(=O)(=O)N3CCOCC3)ccc2Cl)n1 | inactive: -5.82%
CCC(=O)NC(=S)Nc1c(C)cc(Br)cc1C | inactive: 35%
COc1ccc(NCC(=O)N/N=C2\CCc3ccccc32)cc1 | inactive: 9.24%
CCOC(=O)C1=C(C)NC(=O)NC1c1cc(Br)c(O)c(OC)c1 (configuration not stated) | inactive: -18.8%
NS(=O)(=O)c1ccc(CCNC(=O)c2ccc(NC3=NC4CS(=O)(=O)CC4S3)cc2)cc1 (configuration not stated) | inactive: 1.29%
Cc1nc2ccc(Cl)cn2c1C(=O)NN | inactive: 8.28%
COc1ccccc1CC(=O)Nc1ccc2nc(C)sc2c1 | inactive: 16%
CCC1CCCCN1CCCNC(=O)CSc1nc2nc(C)c(Cc3ccc(C)cc3)c(C)n2n1 (configuration not stated) | inactive: -4.64%
CSCCC(NS(=O)(=O)/C=C/c1ccccc1)C(=O)NCCc1ccc(S(N)(=O)=O)cc1 (configuration not stated) | inactive: 7.18%
CC(C)c1onc(C(=O)NCCc2ccccc2)c1[N+](=O)[O-] | inactive: 22.3%
COC(=O)c1ccc(NC(c2ccc(Cl)cc2)P(=O)(OC)OC)cc1 (configuration not stated) | inactive: -21.4%
O=[N+]([O-])c1cc(/C=N\Nc2nc(-c3ccccc3)cs2)ccc1O | inactive: -3.62%
COc1ccc(CCN(C)Cc2c(O)ccc3ccccc23)cc1OC | inactive: -4.41%
CCCCC(=O)N(C)c1c(CC)nc2c(OCCOC)cccn12 | inactive: -9.58%
CCOC(=O)c1c(C)n(C)c2ccc(OC)c(NC(=O)CN3CCCCC3)c12 | inactive: 7.91%
O=[N+]([O-])c1cccc(N/N=C/c2ccc(N3CCOCC3)cc2)c1 | inactive: 4.44%

SMILES | growth rescue (activation)
O=c1[nH]c(Cc2ccccn2)nc2scc(-c3ccc(Cl)cc3)c12 | inactive: 2.35%
CC1Cc2ccccc2N1C(=O)CSc1nnc(-c2ccc(S(=O)(=O)N3CCOCC3)cc2)n1C (configuration not stated) | inactive: 18.7%
CCc1cc(=O)[nH]c(SCc2ccc(C)cc2)n1 | inactive: 26.2%
CN(CC(=O)NCCc1ccccc1)S(=O)(=O)c1cnc[nH]1 | inactive: 15.4%
CC(C)(C)NC(=S)NCc1ccncc1 | inactive: -0.0637%
O=C1CC(NNc2ccccc2)C(=O)N1c1cccc(Cl)c1 (configuration not stated) | inactive: -10.7%
C=CCSC1=N/C(=C\c2ccc3c(c2)OCO3)C(=O)S1 | inactive: -3.95%
CC(C)[C@H](NC(=O)OCc1ccccc1)C(=O)OCC(=O)NCc1ccco1 | inactive: 0.2%
COc1ccc(CCNC(=O)c2ccccc2NS(=O)(=O)c2cc(C(=O)O)ccc2OC)cc1 | inactive: 11.6%
C/C(=N\S(=O)(=O)c1ccc(C)cc1)N(C)C | inactive: 12.9%
C=CCn1c(SCC(N)=O)nc2nc3c(cc2c1=O)COC(C)(C)C3 | inactive: 29.1%
Cc1ccc(NS(=O)(=O)c2cccc(C(=O)Nc3cccnc3)c2)c(C)c1 | inactive: 15.9%
COc1ccc(F)cc1C(=O)C1CCCN(Cc2cnc(N3CCCC3)s2)C1 (configuration not stated) | inactive: 2.81%
CC(C(=O)NCC1CCCO1)N1C(=O)C2C3CC(C(Br)C3Br)C2C1=O (configuration not stated) | inactive: -3.01%
CS(=O)(=O)N1CCN(c2ccc([N+](=O)[O-])c(SCc3ccco3)c2)CC1 | inactive: -3.74%
CC(NC(=O)CCc1nnc(Cc2cccc(C(F)(F)F)c2)o1)C1CC1 (configuration not stated) | inactive: 1.52%
CC(NS(=O)(=O)/C=C/c1ccccc1)c1ccccc1 (configuration not stated) | inactive: 21%
CS(=O)(=O)N1CCC(C(=O)Nc2cc(Cl)ccc2Cl)CC1 | inactive: 7.48%
CC(C)(C)C(=O)Nc1ccc(S(=O)(=O)Nc2ccccn2)cc1 | inactive: -14.2%
CCc1cccc(NC(=O)CN(C)S(=O)(=O)c2cnc[nH]2)c1 | inactive: -13.5%
Nn1c(-c2ccccc2)nc2cc(Cl)ccc2c1=O | inactive: 17.9%
Cc1ccc(C(=O)NC(c2ccccc2)C(Cl)Cl)cc1 (configuration not stated) | inactive: 17.6%

SMILES | growth rescue (activation)
CC(=O)c1ccc(NC(=O)c2cc(-c3cccs3)on2)cc1 | inactive: -29.3%
O=C(Nc1cccc(S(=O)(=O)NC2=NCCC2)c1)c1ccc(F)cc1F | inactive: -0.247%
CCS(=O)(=O)Nc1cccc(C2=NN(C(=O)c3ccco3)C(c3ccco3)C2)c1 (configuration not stated) | inactive: -5.61%
CCn1c(=O)c(C(=O)NNC(=O)c2ccc(Cl)cc2Cl)c(O)c2ccccc21 | inactive: -30.7%
O=C(CSc1n[nH]c(-c2ccncc2)n1)Nc1ccc(Cl)cc1 | inactive: -20.4%
C/C(=N/NC(=O)c1cnccn1)c1cccs1 | inactive: -17.1%
CCOC(=O)N1CCN(C(=O)c2ccccc2N(Cc2ccccc2)S(=O)(=O)c2ccccc2)CC1 | inactive: 7.22%
CCOc1ccc(S(=O)(=O)N2CCCC(C(=O)N3CCOCC3)C2)cc1 (configuration not stated) | inactive: 6.01%
O=C(CCNC(=O)c1ccccc1)Nc1ccc(S(=O)(=O)Nc2ncccn2)cc1 | inactive: 14.3%
O=C(NCC1CCCO1)c1cccc2ccccc12 (configuration not stated) | inactive: 2.86%
Cc1cc(S(=O)(=O)NCc2cccs2)ccc1-n1cnnn1 | inactive: 26%
COc1ccc(/C=N/NC(=O)CCc2n[nH]c(=O)[nH]c2=O)cc1O | inactive: 8.31%
COc1ccc(CN(C)C(=O)c2ccc(COc3ccccc3)cc2)c(OC)c1 | inactive: 29.3%
CC(C)CCNC(=O)C1CCN(Cc2cccc(OCc3ccccc3)c2)CC1 | inactive: -23.6%
CCc1ccc2[nH]c(=O)c(CN(CCN(CC)CC)C(=O)NC3CCCCC3)cc2c1 | inactive: -17.3%
Cc1ccc(C2=NN(C(=O)CSc3nc(N)cc(N)n3)C(c3ccco3)C2)cc1 (configuration not stated) | inactive: 6.64%
COc1ccc(-c2cc(C(=O)N3CCN(c4ccccc4OC)CC3)no2)cc1 | inactive: -8.43%
O=C(Nc1cc(Cl)ccc1N1CCOCC1)c1ccc(N2CCCCC2)c([N+](=O)[O-])c1 | inactive: -23.6%
COc1ccccc1NC(=O)c1cc(Cl)nnc1Cl | inactive: 0.408%
CC(NC(=O)COC(=O)/C=C/c1ccco1)c1ccccc1 (configuration not stated) | inactive: 20.8%
O=C(/C=C/c1ccc(F)cc1)NC(=S)N1CCN(c2ccccn2)CC1 | inactive: 22.1%
Cc1cc2nnc(SCC(=O)N(C)C3CCS(=O)(=O)C3)n2c2ccccc12 (configuration not stated) | inactive: 8.17%

SMILES | growth rescue (activation)
O=C(Nc1ccc(F)cc1)Nc1ccccc1F | inactive: 11.9%
COc1ccc2c(c1)nc(SCC(C)O)n2C (configuration not stated) | inactive: 2.21%
O=C(CCN1C(=O)/C(=C/c2ccccc2)SC1=S)NNC(=O)c1ccncc1 | inactive: -17.1%
CCc1nc2ccc(C(=O)Nc3cc(-c4ccccc4)ccc3OC)cn2c1N(CC)CC(=O)N(C)C | inactive: -3.03%
CCOC(=O)C1CCN(C(=O)c2ccccc2NS(=O)(=O)c2ccc(F)cc2)CC1 | inactive: 7.85%
CC(C(=O)OCC(=O)c1ccccc1)N1C(=O)C2C3CCC(C3)C2C1=O (configuration not stated) | inactive: 7.15%
O=C(N/N=C1\CCc2ccccc21)c1ccccc1Cl | inactive: 7.05%
CCc1ccc(-c2nc(CCl)cs2)cc1 | inactive: 32.8%
Cc1cccnc1NC(N)=S | inactive: 8.89%
CCN(CC)c1ccc(C(=O)N/N=C(\C)c2ccc(O)cc2)cc1 | inactive: 25.1%
COCCNC(=O)CCN1N=C(c2ccccc2)CCC1=O | inactive: -1.56%
CCc1ccc(NC(=O)CN2CCN(c3ccc(OC)cc3)CC2)cc1 | inactive: 0.286%
O=C1CCCc2ccccc2N1Cc1ccccc1 | inactive: 16.4%
O=S(=O)(Nc1ccc2cn[nH]c2c1)c1cc(Br)ccc1Br | inactive: -1.09%
O=C1c2ccccc2C(=O)c2cc(S(=O)(=O)Nc3ccccc3)ccc21 | inactive: -12.5%
CCOc1ccc(C(=O)Cn2cnc3ccccc3c2=O)cc1 | inactive: -27.4%
CCCCCCNC(=O)c1c(O)c2cccc3c2n(c1=O)CCC3 | inactive: -27.7%
COc1ccccc1CN1CCNC(=O)C1CC(=O)NCCOc1cccnc1 (configuration not stated) | inactive: -2.26%
CNC(=O)NC(=O)C(C)OC(=O)c1oc2ccccc2c1CSc1ccc(Cl)cc1 (configuration not stated) | inactive: 7.55%
CC(NC(=O)COC(=O)c1ccc([N+](=O)[O-])o1)c1ccccc1 (configuration not stated) | inactive: 29.7%
COc1ccc(-n2nc(C(=O)NCC(=O)N3CCN(c4ccccc4OC)CC3)c3ccccc3c2=O)c(OC)c1 | inactive: 5.85%
COc1ccc(CCN(Cc2ccc(C(C)C)cc2)S(=O)(=O)c2ccc(S(=O)(=O)N(C)C)cc2)cc1OC | inactive: 12.3%

SMILES | growth rescue (activation)
COc1ccc2c(c1)c(CC(=O)Nc1ccc(C(C)=O)cc1)c(C)n2C(=O)c1ccc(Cl)cc1 | inactive: 24.7%
COc1ccc(CN(C)CC(=O)Nc2cccc3ccccc23)cc1F | inactive: 4.15%
CCN1CC(CN(C)Cc2nc(-c3cccs3)no2)CC1=O (configuration not stated) | inactive: 5.52%
Cc1ccc(CNc2nc3c([nH]2)c(=O)n(C)c(=O)n3C)cc1 | inactive: -10.8%
CCOC(=O)C1=C(C)NC(=O)NC1c1cc2c(cc1Br)OCO2 (configuration not stated) | inactive: -24.1%
Cc1ccc(S(=O)(=O)Nc2nc(C)c(C(=O)NNS(=O)(=O)c3ccccc3)s2)cc1 | inactive: 4.66%
Cc1ccc(NC(=O)CN(c2ccc(Cl)cc2)S(=O)(=O)c2cc([N+](=O)[O-])ccc2Cl)cc1 | inactive: 1.23%
COc1ccc(/C=N/Nc2cc(N3CCCC3)nc(N3CCCC3)n2)cc1 | inactive: -0.262%
Cc1ccc(NC(=O)NC(=O)CN2CCN(c3ccc(O)cc3)CC2)c(C)c1 | inactive: -1.68%
CC(C)Oc1ccc(C2CCC(=O)NC2=O)cc1 (configuration not stated) | inactive: -2.75%
CCN1CCCC1CNC(=O)c1ccc(N2CCOCC2)c(NS(=O)(=O)c2ccc(OC)cc2)c1 (configuration not stated) | inactive: 3.89%
CC(=O)c1c(N2CCN(c3ccccn3)CC2)nc(=S)n(-c2ccccc2)c1C | inactive: -3.76%
N#Cc1ccccc1NC(=O)CSc1ccc([N+](=O)[O-])cn1 | inactive: -15.5%
CC(=O)c1ccc(Nc2nc3ccc(C)cc3n3cnnc23)cc1 | inactive: -5.06%
CCCCC1(C(=O)OCC)NC(c2ccc(O)cc2)C2C(=O)N(c3ccccc3)C(=O)C21 (configuration not stated) | inactive: 3.56%
CCOc1ccc(C(=O)NC(=S)Nc2cccc(NC(=O)c3ccco3)c2)cc1[N+](=O)[O-] | inactive: 0.154%
CNS(=O)(=O)c1cccc(C(=O)NCC(C)(C)N2CCCCC2)c1 | inactive: 6.69%
CC(=O)NC(Cc1ccccc1)C(=O)OCC(=O)c1ccc(Cl)cc1 (configuration not stated) | inactive: 3.26%
S=C1NNC2(CC3CC2C2CCCC32)NN1 (configuration not stated) | inactive: 2.42%
